Reference: article PMC10657422
These are yes or no findings as the source states them, for the method shown. In cells and extracts the contact can be indirect. Some binding calls cover weakened binding; strength is not graded here. Sequences can lack the tags named with a protein.

Amino acid sequences for entries named in this document (tags omitted).
UniProt Q96704: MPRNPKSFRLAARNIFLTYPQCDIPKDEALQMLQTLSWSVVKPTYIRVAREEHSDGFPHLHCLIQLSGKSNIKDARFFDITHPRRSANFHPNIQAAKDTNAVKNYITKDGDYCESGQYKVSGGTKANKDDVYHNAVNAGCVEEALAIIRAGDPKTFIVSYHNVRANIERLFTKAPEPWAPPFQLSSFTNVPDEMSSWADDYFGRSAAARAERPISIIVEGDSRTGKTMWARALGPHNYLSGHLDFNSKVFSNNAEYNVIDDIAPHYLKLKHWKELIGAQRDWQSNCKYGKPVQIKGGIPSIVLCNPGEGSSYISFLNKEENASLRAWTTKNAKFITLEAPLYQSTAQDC

T1: cYFP-RAD51 (Arabidopsis thaliana) (UniProt P94102)
T1 sequence: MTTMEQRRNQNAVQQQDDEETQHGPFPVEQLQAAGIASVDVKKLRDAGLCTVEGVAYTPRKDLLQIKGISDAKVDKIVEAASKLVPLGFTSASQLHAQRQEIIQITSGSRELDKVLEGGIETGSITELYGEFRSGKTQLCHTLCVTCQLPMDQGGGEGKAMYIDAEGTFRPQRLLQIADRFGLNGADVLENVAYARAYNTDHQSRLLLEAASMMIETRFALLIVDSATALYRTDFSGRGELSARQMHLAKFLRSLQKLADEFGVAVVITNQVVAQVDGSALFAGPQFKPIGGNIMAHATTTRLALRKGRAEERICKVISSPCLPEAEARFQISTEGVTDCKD

T2: FM-RAD51 (Flag-4Myc-tagged RAD51) (Arabidopsis thaliana) (UniProt P94102)
T2 sequence: T1 sequence

B1: HA-RPA1A (HA-tagged RPA1A) (protein, UniProt Q9SKI4 1-640)
chain: MPVSLTPNAITAIHDGDVNLKPLLQVLEIKMIGRSQERSQERYRFLISDGVSAQHAMVAVQLNDRVKSGQFEKGSIVQLIDYICSDVKGRKLIVVLNMETIVQQSETIGNPTIFGETDTEAQKTFSGTGNIPPPNRVVFNEPMVQHSVNRAPPRGVNIQNQANNTPSFRPSVQPSYQPPASYRNHGPIMKNEAPARVIPIAALNPYQGRWAIKARVTAKGDIRRYNNAKGDGKVFSFDLLDYDGGEIRVTCFNALVDRFYDVTEVGKVYLISKGSLKPAQKNFNHLKNEWEIFLESTSTVELCPDEDGSIPKQQFSFRPISDIENAENNTILDVIGVVTSVNPSVPILRKNGMETHRRILNLKDESGKAVEVTLWGEFCNRDGRQLEEMVDSAFHPVLAIKAGKVSDFSGKSVGTISSTQLFINPDFPEAHKLRTWFDYGGKDTASFSISRDTMPGGVSRNEIRKNVSQIKEEGLGRSDKPDWITVKATISFIKTDSFCYTACPLMIGDKQCNKKVTRSGTNRWLCDRCNQESDECDYRYLLQVQIQDHTGLTWITAFQETGEEIMGCPAKKLYAMKYELEKEEEFAEIVRDRLFHQYMLKLKIKEESYGDEQRVKMTVVKVDKVNYTSESKYMLDLLVR

Columns and labels:
[1] = target: T1, cYFP-RAD51 (Arabidopsis thaliana); assay: split reporter; BiFC of YFP; nYFP and cYFP fusions co-expressed in Arabidopsis protoplasts of Col-0 and of atxr5 atxr6; confocal microscopy 16 h after transfection
[2] = target: T2, FM-RAD51 (Flag-4Myc-tagged RAD51) (Arabidopsis thaliana); assay: co-IP; co-expressed in N. benthamiana leaves by agroinfiltration; total protein extract; IP buffer 40 mM Tris-HCl pH 8.0, 150 mM NaCl, 5 mM MgCl2, 1% glycerol, 0.6% Triton X-100; anti-HA agarose or anti-FLAG-M2 magnetic beads, 4 °C, 2 h; Turbo DNase (10 U/ml) in the buffer; blots with anti-Myc or anti-HA
[3] = target: FM-Rep (Flag-4Myc-tagged Rep of CaLCuV) (Cabbage Leaf Curl Virus (CaLCuV)) (UniProt Q96704); assay: as above

| Molecule | binding [1] | binding [2] | binding [3] |
| --- | --- | --- | --- |
| nYFP-Rep (from UniProt Q96704 1-349) | binds | – | – |
| B1 | – | binds | binds |
